The source of these data is paper PMC11336835 (Heliyon, 2024).

The test system of the test is colorectal adenocarcinoma cell line (DLD-1). The note with it: ratio of DLD-1 IC50 to M. tuberculosis IC50.

Molecules are shown by their SMILES. *1 amine or outer side, *2 acyl side, *3 side chain or, on linkers, in order; H or OH if unused. Where a SMILES comes first, the peptide text is derived from it. Bridges are numbered along the chain shown (N, C = ends). Roman numbers before positions name the chains, in order. [ ]: non-standard residue; d: D form. Actinocin(9to1) = Cc1c2oc3c(C)ccc(C(=O)[*:1])c3nc-2c(C(=O)[*:2])c(N)c1=O; NMeV = CN[C@H](C(=O)O)C(C)C; Sar = CNCC(=O)O

`Cc1c2oc3c(C)ccc(C(=O)N[C@@H]4C(=O)N[C@H](C(C)C)C(=O)N5CCC[C@H]5C(=O)N(C)CC(=O)N(C)[C@@H](C(C)C)C(=O)O[C@@H]4C)c3nc-2c(C(=O)N[C@@H]2C(=O)N[C@H](C(C)C)C(=O)N3CCC[C@H]3C(=O)N(C)CC(=O)N(C)[C@@H](C(C)C)C(=O)O[C@@H]2C)c(N)c1=O` [F5(23), actinomycin D] (I: T[dV]P[Sar][NMeV] / II: T[dV]P[Sar][NMeV]; ester I:1-I:C, II:1-II:C; linker I:N-II:N via Actinocin(9to1)): the “Selectivity index (DLDI/M. tuberculosis)” value is on record as >1,100.
